Laboratory results reported in the supplement of paper PMC8728848.
The list shows a part of the results.

What was measured:
Assay in all cases: glycan array binding signal (z-score within array); higher = stronger binding
Conditions in all cases: glycan notation: IUPAC condensed, linker removed
[1] = target: Gal(b1-3)GlcNAc(b1-2)Man(a1-3)[Gal(b1-3)GlcNAc(b1-2)Man(a1-6)]Man(b1-4)GlcNAc(b1-4)GlcNAc
Procedure, shortened: (§1)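 The binding signal is a Z-score computed within each array. Data were drawn from 3228 arrays in the Consortium for Functional Glycomics database, restricted to those with a known protein sequence. Scores were averaged over arrays of the same protein sequence at different concentrations or buffers, and over linkers, and negative values can be taken as non-binding.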

[2] = target: Gal(b1-3)GlcNAc(b1-2)Man(a1-3)[Gal(b1-3)GlcNAc(b1-2)Man(a1-6)]Man(b1-4)GlcNAc(b1-4)[Fuc(a1-6)]GlcNAc
Procedure, shortened: as §1

[3] = target: Gal(b1-3)GlcNAc(b1-2)Man(a1-3)[GlcNAc(b1-4)][Gal(b1-3)GlcNAc(b1-2)Man(a1-6)]Man(b1-4)GlcNAc(b1-4)GlcNAc
Procedure, shortened: as §1

[4] = target: Gal(b1-3)GlcNAc(b1-2)[Gal(b1-3)GlcNAc(b1-6)]Man(a1-6)[Gal(b1-3)GlcNAc(b1-2)Man(a1-3)]Man(b1-4)GlcNAc(b1-4)GlcNAc
Procedure, shortened: as §1

[5] = target: Gal(b1-3)GlcNAc(b1-3)Gal(b1-3)GlcNAc
Procedure, shortened: as §1

[6] = target: Gal(b1-3)GlcNAc(b1-3)Gal(b1-4)Glc
Procedure, shortened: as §1

[7] = target: Gal(b1-3)GlcNAc(b1-3)Gal(b1-4)GlcNAc
Procedure, shortened: as §1

[8] = target: Gal(b1-3)GlcNAc(b1-3)Gal(b1-4)GlcNAc(b1-2)Man(a1-3)[Gal(b1-3)GlcNAc(b1-3)Gal(b1-4)GlcNAc(b1-2)Man(a1-6)]Man(b1-4)GlcNAc(b1-4)GlcNAc
Procedure, shortened: as §1

[9] = target: Gal(b1-3)GlcNAc(b1-3)Gal(b1-4)GlcNAc(b1-2)[Gal(b1-3)GlcNAc(b1-3)Gal(b1-4)GlcNAc(b1-6)]Man(a1-6)[Gal(b1-3)GlcNAc(b1-3)Gal(b1-4)GlcNAc(b1-2)Man(a1-3)]Man(b1-4)GlcNAc(b1-4)[Fuc(a1-6)]GlcNAc
Procedure, shortened: as §1

[10] = target: Gal(b1-3)GlcNAc(b1-3)Gal(b1-4)GlcNAc(b1-3)Gal(b1-4)GlcNAc(b1-2)[Gal(b1-3)GlcNAc(b1-3)Gal(b1-4)GlcNAc(b1-3)Gal(b1-4)GlcNAc(b1-6)]Man(a1-6)[Gal(b1-3)GlcNAc(b1-3)Gal(b1-4)GlcNAc(b1-3)Gal(b1-4)GlcNAc(b1-2)Man(a1-3)]Man(b1-4)GlcNAc(b1-4)[Fuc(a1-6)]GlcNAc
Procedure, shortened: as §1

[11] = target: Gal(b1-3)GlcNAc(b1-3)Gal(b1-4)GlcNAc(b1-6)[Gal(b1-3)GlcNAc(b1-3)]Gal(b1-4)Glc
Procedure, shortened: as §1

[12] = target: Gal(b1-3)GlcNAc(b1-3)Gal(b1-4)[Fuc(a1-3)]GlcNAc
Procedure, shortened: as §1

[13] = target: Gal(b1-3)GlcNAc(b1-3)Gal(b1-4)[Fuc(a1-3)]GlcNAc(b1-6)[Gal(b1-3)GlcNAc(b1-3)]Gal(b1-4)Glc
Procedure, shortened: as §1

[14] = target: Gal(b1-3)GlcNAc(b1-3)GalNAc
Procedure, shortened: as §1

[15] = target: Gal(b1-3)GlcNAc(b1-6)Gal(b1-4)GlcNAc
Procedure, shortened: as §1

[16] = target: Gal(b1-3)GlcNAc(b1-6)GalNAc
Procedure, shortened: as §1

[17] = target: Gal(b1-3)GlcNAc(b1-6)[Gal(b1-3)]GalNAc
Procedure, shortened: as §1

Gal(b1-3)GlcNAc6S = target: Gal(b1-3)GlcNAc6S
Procedure, shortened: as §1

[18] = target: Gal(b1-3)[Fuc(a1-4)]GlcNAc
Procedure, shortened: as §1

[19] = target: Gal(b1-3)[Fuc(a1-4)]GlcNAc(b1-2)Man
Procedure, shortened: as §1

[20] = target: Gal(b1-3)[Fuc(a1-4)]GlcNAc(b1-2)Man(a1-3)[Gal(b1-3)[Fuc(a1-4)]GlcNAc(b1-2)Man(a1-6)]Man(b1-4)GlcNAc(b1-4)[Fuc(a1-6)]GlcNAc
Procedure, shortened: as §1

[21] = target: Gal(b1-3)[Fuc(a1-4)]GlcNAc(b1-3)Gal(b1-3)[Fuc(a1-4)]GlcNAc
Procedure, shortened: as §1

[22] = target: Gal(b1-3)[Fuc(a1-4)]GlcNAc(b1-3)Gal(b1-4)[Fuc(a1-3)]GlcNAc
Procedure, shortened: as §1

[23] = target: Gal(b1-3)[Fuc(a1-4)]GlcNAc(b1-6)GalNAc
Procedure, shortened: as §1

[24] = target: Gal(b1-3)[GlcNAc(b1-6)]GalNAc
Procedure, shortened: as §1

[25] = target: Gal(b1-3)[Neu5Ac(a2-6)]GalNAc
Procedure, shortened: as §1

[26] = target: Gal(b1-3)[Neu5Ac(a2-6)]GlcNAc(b1-4)Gal(b1-4)Glc
Procedure, shortened: as §1

[27] = target: Gal(b1-3)[Neu5Ac(b2-6)]GalNAc
Procedure, shortened: as §1

Gal(b1-4)Gal = target: Gal(b1-4)Gal
Procedure, shortened: as §1

[28] = target: Gal(b1-4)GalNAc(a1-3)[Fuc(a1-2)]Gal(b1-4)GlcNAc
Procedure, shortened: as §1

[29] = target: Gal(b1-4)GalNAc(b1-3)[Fuc(a1-2)]Gal(b1-4)GlcNAc
Procedure, shortened: as §1

Gal(b1-4)Glc = target: Gal(b1-4)Glc
Procedure, shortened: as §1

Gal(b1-4)Glc6S = target: Gal(b1-4)Glc6S
Procedure, shortened: as §1

Gal(b1-4)GlcNAc = target: Gal(b1-4)GlcNAc
Procedure, shortened: as §1

[30] = target: Gal(b1-4)GlcNAc(a1-6)Gal(b1-4)GlcNAc
Procedure, shortened: as §1

Gal(b1-4)GlcNAc(b1-2)Man = target: Gal(b1-4)GlcNAc(b1-2)Man
Procedure, shortened: as §1

[31] = target: Gal(b1-4)GlcNAc(b1-2)Man(a1-3)Man(b1-4)GlcNAc(b1-4)GlcNAc
Procedure, shortened: as §1

B1: DrGal9 (Danio rerio) (protein)
chain: MAFYQQPPYYNPRIPFSGPIQGGLQDGKSIIISGRVLPGANRFHVNLQCGSHSEANVALHFNPRYEDTDYVVNNSYLNRTWGSEERKYESPFAQGQTFTLQILVAQDKYKISTNGRHFMDYKHRIPFTQVDTVAVEGMVEVNSVAFQNPAGFIPPQAGYAPQYAVPPGCGFPAFPSAPNYTIPHKTVMNGGLHPGKNIVINGVVNPNAKSIIFNLCYRSGIAFHYNPRFDENVVVRNTNQMEKWGAEERFGGLPFHKGQPFQVTISCNPQHYNVFVNGKQEHTYKHRYTKLNDIDILEICGDLQLTSVQA
[1]
  glycan array binding signal (z-score): 1.5
[2]
  glycan array binding signal (z-score): 0.27
[3]
  glycan array binding signal (z-score): -0.044
[4]
  glycan array binding signal (z-score): 1.15
[5]
  glycan array binding signal (z-score): 1.37
[6]
  glycan array binding signal (z-score): 0.756
[7]
  glycan array binding signal (z-score): -0.053
[8]
  glycan array binding signal (z-score): 2.44
[9]
  glycan array binding signal (z-score): 2.28
[10]
  glycan array binding signal (z-score): 2.38
[11]
  glycan array binding signal (z-score): 1.3
[12]
  glycan array binding signal (z-score): -0.051
[13]
  glycan array binding signal (z-score): 0.234
[14]
  glycan array binding signal (z-score): -0.193
[15]
  glycan array binding signal (z-score): -0.008
[16]
  glycan array binding signal (z-score): -0.157
[17]
  glycan array binding signal (z-score): 0.477
Gal(b1-3)GlcNAc6S
  glycan array binding signal (z-score): -0.12
[18]
  glycan array binding signal (z-score): -0.388
[19]
  glycan array binding signal (z-score): -0.366
[20]
  glycan array binding signal (z-score): -0.344
[21]
  glycan array binding signal (z-score): -0.392
[22]
  glycan array binding signal (z-score): -0.404
[23]
  glycan array binding signal (z-score): -0.368
[24]
  glycan array binding signal (z-score): -0.236
[25]
  glycan array binding signal (z-score): -0.397
[26]
  glycan array binding signal (z-score): -0.276
[27]
  glycan array binding signal (z-score): -0.396
Gal(b1-4)Gal
  glycan array binding signal (z-score): -0.413
[28]
  glycan array binding signal (z-score): -0.375
[29]
  glycan array binding signal (z-score): -0.38
Gal(b1-4)Glc
  glycan array binding signal (z-score): -0.354
Gal(b1-4)Glc6S
  glycan array binding signal (z-score): 0.002
Gal(b1-4)GlcNAc
  glycan array binding signal (z-score): -0.289
[30]
  glycan array binding signal (z-score): -0.269
Gal(b1-4)GlcNAc(b1-2)Man
  glycan array binding signal (z-score): -0.367
[31]
  glycan array binding signal (z-score): 0.045
